# The campaign covered roughly 360,000 compounds. About 520 (0.14%) were called active. The inconclusive results got no clear call from the source; some entries with a clear call stand among them for comparison. Calls come from the whole dose curve; as a rule, active = well fitted inhibition curve with a large enough effect; inconclusive = small, poorly fitted or top-dose-only effect; inactive = no such curve, though single readings can be large or run the other way. No potency is given beside an inconclusive call; the fits are too rough.
# Biological target: Rap guanine nucleotide exchange factor 3 (Homo sapiens) (UniProt O95398)
# Experiment: qHTS for Antagonist of cAMP-regulated guanine nucleotide exchange factor 3 (EPAC1): primary screen; note: nearly all actives have a fitted effect of over 50% in size
# Details: EPAC1 GEF assay, Rap1b-BODIPY-GDP exchange fluorescence; series mostly up to 115 µM
# Potency is the fitted concentration of half-maximal effect; tags give direction and shape of the fitted curve.
# UniProt O95398, sequence (O95398 whole entry, looked up): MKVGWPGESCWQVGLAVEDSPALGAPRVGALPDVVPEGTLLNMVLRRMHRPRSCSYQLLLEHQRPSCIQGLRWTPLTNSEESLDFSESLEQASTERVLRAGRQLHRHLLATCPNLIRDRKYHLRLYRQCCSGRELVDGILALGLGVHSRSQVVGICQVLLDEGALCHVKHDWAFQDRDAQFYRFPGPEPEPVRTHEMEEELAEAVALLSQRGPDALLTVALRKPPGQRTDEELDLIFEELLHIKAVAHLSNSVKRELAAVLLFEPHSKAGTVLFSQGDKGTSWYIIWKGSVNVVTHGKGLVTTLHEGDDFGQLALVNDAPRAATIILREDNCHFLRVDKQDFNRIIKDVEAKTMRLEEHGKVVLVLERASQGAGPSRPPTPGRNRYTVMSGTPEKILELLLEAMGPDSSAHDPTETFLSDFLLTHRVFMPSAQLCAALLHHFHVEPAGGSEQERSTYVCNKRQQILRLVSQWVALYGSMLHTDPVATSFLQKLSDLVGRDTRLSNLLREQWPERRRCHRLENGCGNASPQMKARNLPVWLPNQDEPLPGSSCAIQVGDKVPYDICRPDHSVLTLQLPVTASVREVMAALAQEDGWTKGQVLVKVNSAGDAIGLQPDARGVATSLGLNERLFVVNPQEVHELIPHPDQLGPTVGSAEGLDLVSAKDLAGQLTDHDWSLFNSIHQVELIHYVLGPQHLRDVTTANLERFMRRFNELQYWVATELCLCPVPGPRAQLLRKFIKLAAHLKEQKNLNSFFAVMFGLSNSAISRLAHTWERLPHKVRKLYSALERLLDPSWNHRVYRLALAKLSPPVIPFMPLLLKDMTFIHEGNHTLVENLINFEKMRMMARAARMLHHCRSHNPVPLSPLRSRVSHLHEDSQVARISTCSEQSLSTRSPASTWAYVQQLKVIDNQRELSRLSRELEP
row,Compound,Potency
1,CC(C(=O)Nc1ccccc1F)N1CCN(S(=O)(=O)c2ccc(C(F)(F)F)cc2)CC1 (stereo unspecified),"inconclusive [inhibitor, full curve]"
2,C/C=C/C=C/C(=O)[C@@H]1[C@@H]([C@]2(C)OC(=O)C(C)=C2O)[C@H]2/C(=C(O)/C=C/C=C/C)C(=O)[C@]1(C)C(=O)C2(C)O (stereo partly specified),"inconclusive [inhibitor, partial curve]"
3,NC(=S)c1cc2cc(Cl)ccc2oc1=O,inactive
4,Cn1c(=O)[nH]c(=O)c2c1nc(N/N=C/c1ccncc1)n2Cc1ccc(F)cc1,inactive
5,CCCCN(Cc1ccc(C(=O)N[C@H](C(=O)O)C(C)C)cc1)C(=O)C(c1ccccc1)c1ccccc1,"inconclusive [inhibitor, single point]"
6,CC(C)N=c1scc(-c2ccco2)n1/N=C/c1ccc(O)c(O)c1,"inconclusive [inhibitor, partial curve]"
7,COc1ccc(NC(=O)N2CCN(c3cccc(C(F)(F)F)c3)CC2)cc1OC,"inconclusive [inhibitor, full curve, poor fit]"
8,O=C(CCl)Nc1ccc(N=Nc2ccccc2)cc1,"inconclusive [inhibitor, partial curve]"
9,CC(C)(C)CC(C)(C)NC(=S)Nc1ccc2nc(-c3ccccn3)c(-c3ccccn3)nc2c1,inactive
10,COc1ccccc1NC(=O)COC(=O)CC(C)(C)CC1=NS(=O)(=O)c2ccccc2N1,"inconclusive [inhibitor, partial curve]"
11,CCN1CCN(C(=O)c2ccc(CS(=O)Cc3ccc(C)cc3)o2)CC1 (stereo unspecified),"inconclusive [inhibitor, partial curve]"
12,COc1ccc(C2C(C(C)=O)=C(C)Nc3ncnn32)c(OC)c1OC (stereo unspecified),"inconclusive [inhibitor, single point]"
13,Cc1cccc2cc(C#N)c(SCCN3CCCCC3)nc12,"inconclusive [inhibitor, partial curve, poor fit]"
14,Cc1ccc(C(=O)c2c3ccc(C(F)(F)F)cc3[n+]([O-])n2CCC(N)=O)cc1,inactive
15,CCn1c(O)c(N=Nc2ccc(Cl)c(C(=O)O)c2)c2ccccc21,"inconclusive [inhibitor, single point]"
16,CC1CCCCC1NS(=O)(=O)c1ccc(S(=O)(=O)N2CCN(CCC#N)CC2)cc1 (stereo unspecified),"inconclusive [inhibitor, partial curve]"
17,Fc1ccc(-n2cc(CNCCc3cccnc3)c(-c3ccccc3Cl)n2)cc1,inactive
18,N=c1c2cn[nH]c2nc(SCC(=O)c2ccc(Br)cc2)n1-c1ccc(Br)cc1,"inconclusive [inhibitor, partial curve, poor fit]"
19,CCCc1cc2c(cc1NC(=O)c1ccco1)OCO2,"inconclusive [inhibitor, single point]"
20,COc1cc(C)ccc1OCCCOc1c(Cl)cccc1Cl,"inconclusive [inhibitor, partial curve]"
21,O=C(Nc1ccccc1Cl)c1cc[n+](Cc2ccc([N+](=O)[O-])cc2)cc1,"inconclusive [inhibitor, partial curve]"

row,Compound,Potency
1,COc1cc([C@@H]2c3cc4c(cc3[C@@H](O)[C@H]3COC(=O)[C@H]23)OCO4)cc(OC)c1O[Si](C)(C)C(C)(C)C,"inconclusive [inhibitor, full curve]"
2,Cc1cc(O)c(C(=O)/C=C/c2ccccc2Br)c(=O)o1,"inconclusive [inhibitor, partial curve, poor fit]"
3,O=C(CSc1ccccc1C(=O)O)c1ccc(Cl)cc1,inactive
4,O=C(Nc1ccon1)c1ccc(N2CCCCC2)c([N+](=O)[O-])c1,inactive
5,CSc1ccc(Cn2nnc(C(=O)NCc3ccccc3)c2N)cc1,"inconclusive [inhibitor, partial curve]"
6,C/C=C\C=C/C(=O)Nc1cccc(C2=NOC3(C2)C[C@@H](C(N)=O)N(C(=O)/C=C/C=C\C)C3)c1 (stereo partly specified),"inconclusive [inhibitor, partial curve]"
7,Cc1ncc(CN2CCCC(C(=O)Nc3ccc(-c4cccc(F)c4)cc3)C2)cn1 (stereo unspecified),"inconclusive [inhibitor, single point]"
8,CC(=O)Nc1ccc(NC(=O)CSc2cn(CC(=O)N3CCOCC3)c3ccccc23)cc1,"inconclusive [inhibitor, single point]"
9,CCCCc1nc2ccccc2c(=O)n1NC(=O)c1c(O)c2cccc3c2n(c1=O)CC3,"inconclusive [inhibitor, single point]"
10,COc1ccc(Cn2c(C)nc3c(c2=O)c2nc4ccccc4nc2n3Cc2ccco2)cc1,"inconclusive [inhibitor, single point]"
11,CCc1nn(-c2ccccc2)c(=S)c2ccccc12,"inconclusive [inhibitor, partial curve]"
12,CC1=C(C#N)c2nc(N)c(C#N)c(C)c2/C1=C\c1ccc(OCC(=O)O)c(Cl)c1,"inconclusive [inhibitor, partial curve]"
13,CCc1c(-c2ccccc2)nc2nc(C)c(C)nn12,"inconclusive [inhibitor, full curve]"
14,O=S(=O)(Nc1ccc(O)c2ccccc12)c1cccs1,inactive
15,COc1cccc(CN2CCc3ccc(NC(=O)CCc4ccc(C)cc4)cc3C2)c1O,inactive
16,COc1cccc(NC(=O)C2CCN(S(=O)(=O)c3ccc4[nH]c(=O)oc4c3)CC2)c1,inactive
17,CCn1c(O)c(N=N)c2ccccc21,"inconclusive [inhibitor, full curve]"
18,N#Cc1ccc(CSc2nc(N)cc(N)n2)cc1,"inconclusive [inhibitor, single point]"
19,COc1ccc(Br)cc1C1CC(=O)N2CN(Cc3ccccc3)CSC2=C1C#N (stereo unspecified),"inconclusive [inhibitor, partial curve]"
20,O=C(COC(=O)c1ccc(S(=O)(=O)NCc2ccco2)cc1)Nc1ccc(Cl)cn1,"inconclusive [inhibitor, single point]"

# Source: PubChem BioAssay AID720709 (National Center for Advancing Translational Sciences (NCATS), 2013)
